From ChEMBL document CHEMBL4888484, “Replenishing the malaria drug discovery pipeline: Screening and hit evaluation of the MMV Hit Generation Library 1 (HGL1) against asexual blood stage Plasmodium falciparum ,using a nano luciferase reporter read-out” (2022)
In all, about 150,000 compounds went through this assay and about 540 (0.36%) showed an effect of 50% or more. This is one part of the list.

System: Plasmodium falciparum
Experiment: Primary screen in NF54 nanoGlo assay, in single point, at 2uM, 72h; a lower Z score goes with more inhibition
Format: functional, Erythrocyte
Conditions: timepoint 72 hour

Question: How did the “% Inhibition” value turn out when NS(=O)(=O)C[C@H]1CCN(C(=O)c2ccc(-c3noc(C4CC4)n3)cc2)C1 was run?
Answer: 8%

Question: What about the Z score of the same compound?
Answer: -1.64

Question: Which “% Inhibition” value does the source give for CC(O)CCN(C)C(=O)NC(C)c1cc(F)c(F)c(F)c1 (stereo not drawn) here?
Answer: -8%

Question: And the Z score?
Answer: 0.68

Question: Which “% Inhibition” value does the source give for CC(C)(C#N)c1ccc(C(=O)N2CCOCC23CCCC3)cc1 here?
Answer: 2%

Question: What about the Z score of the same compound?
Answer: -0.21

Question: What does the source list for C[C@H]1C(=O)N(C)CCN1C(=O)NCc1cc(-c2ccccc2Cl)no1?
Answer: % Inhibition: -15%; Z score: 1.7

Question: For FC(F)(F)c1cccnc1OC[C@H]1CCCOC1, which “% Inhibition” value is on record?
Answer: 1%

Question: And the Z score?
Answer: -0.15

Question: What does the source list for CC(C)(C)C1=NS(=O)(=O)c2c(CO)ccc(Cl)c21?
Answer: % Inhibition: -39%; Z score: 4.54

Question: For Cc1ncc(S(=O)(=O)NC(=O)C(C)(C)C)s1, which “% Inhibition” value is on record?
Answer: -35%

Question: What about the Z score of the same compound?
Answer: 4.06

Question: With Cc1cc(C)n(-c2ccc(COc3ccccc3C#N)cc2)n1 as the compound, how does the “% Inhibition” value read?
Answer: -7%

Question: And the Z score?
Answer: 1.11

Question: Which “% Inhibition” value does the source give for COCCN(C)c1ccc(CNc2ccc3c(c2)COC3)cn1 here?
Answer: -7%

Question: What about the Z score of the same compound?
Answer: 0.84

Question: Which “% Inhibition” value does the source give for COc1cc(CN2CC(c3nc(-c4cccc(C(F)(F)F)c4)no3)C2)cc(OC)c1 here?
Answer: -8%

Question: What about the Z score of the same compound?
Answer: 0.87

Question: What does the source list for CC(C)(NCc1nccs1)c1ccccc1Br?
Answer: % Inhibition: -10%; Z score: 1.35

Question: How did the “% Inhibition” value turn out when Cc1ccc(-c2n[nH]c(NC(=O)[C@@H]3Cc4ccccc4O3)c2C)o1 was run?
Answer: -13%

Question: And the Z score?
Answer: 1.83

Question: How did the “% Inhibition” value turn out when COc1ccc(-c2c(C)noc2NC(C)=O)cc1S(=O)(=O)NCc1ccc(C)o1 was run?
Answer: 0%

Question: And the Z score?
Answer: 0.06

Question: How did the “% Inhibition” value turn out when CCc1ccc(S(=O)(=O)Nc2cnc(Oc3ccccc3F)nc2)cc1 was run?
Answer: -3%

Question: What about the Z score of the same compound?
Answer: 0.52

Question: What does the source list for CON(C)Cn1nc(-c2c(C)cc(C)cc2C)oc1=S?
Answer: % Inhibition: -17%; Z score: 2.51

Question: How did the “% Inhibition” value turn out when O=C(NCC#CCOc1ccc2c(c1)OCO2)c1ccncc1 was run?
Answer: -11%

Question: What about the Z score of the same compound?
Answer: 1.41

Question: Which results are given for COc1ccc(CCNC(=O)CN2CC(c3nc(C)no3)C2)cc1OC?
Answer: % Inhibition: 2%; Z score: -0.41

Question: How did the “% Inhibition” value turn out when O[C@H](c1ccccc1)C1(CNCc2ccccn2)CC1 was run?
Answer: -3%

Question: And the Z score?
Answer: 0.41

Question: With Cc1nc(CCCNc2ncc(Cl)cn2)n[nH]1 as the compound, how does the “% Inhibition” value read?
Answer: -9%

Question: What about the Z score of the same compound?
Answer: 0.94

Question: For CC(C)[C@@H]1N(C(=O)NCCc2cn(C)cn2)CC1(C)C, which “% Inhibition” value is on record?
Answer: 9%

Question: What about the Z score of the same compound?
Answer: -1.28

Question: Which results are given for O=C(NCCc1ccc(OC(F)F)cc1)c1nccn2ccnc12?
Answer: % Inhibition: -11%; Z score: 1.5

Question: How did the “% Inhibition” value turn out when CCCCc1nc(C)cc(NCc2cc(Br)cnc2N)n1 was run?
Answer: -33%

Question: And the Z score?
Answer: 3.83

Question: With O=C(Cc1ccccc1)N1CCc2nc(N3CCCCC3)nc(Oc3ccc(F)c(F)c3)c2C1 as the compound, how does the “% Inhibition” value read?
Answer: -7%

Question: And the Z score?
Answer: 0.9

Question: How did the “% Inhibition” value turn out when O=c1nc(CN2CCO[C@H](c3ccc(Cl)cc3)C2)[nH][nH]1 was run?
Answer: -18%

Question: And the Z score?
Answer: 2.47
